# Data: PubChem BioAssay (Tox21)
# “And” between values parts separate entries of the source, which are not always exact repeats. Equal entries are not always repeated. The shares of active, inactive and inconclusive entries below differ from those in the screen. Potencies beside an inconclusive call are fits to weak or partial responses and may not hold up. The source made the active and inactive calls. Unless noted, calls follow the shape of the dose curve; as a rule, active = well fitted curve in the direction sought with a large enough effect in the repeat runs; inconclusive = weak or mixed curves; inactive = no such curve, though single readings can be large; an effect the other way counts as inactive or inconclusive.
# Experiments:
# [1] = qHTS assay for small molecule agonists of the p53 signaling pathway (AID 651631; calls by dose curve; also: nearly all actives have a fitted effect of over 15% in size; as to activation: % is scaled to controls: 0 for no effect and ±100 for the full control effect); conditions: HCT-116 p53RE-bla reporter, beta-lactamase FRET ratio, 16 h; activation: at 73.3 µM (top of the series) unless noted
# Summary of the method: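 We treat p53RE-bla HCT-116 cells with compounds for 16 h at 37 °C, add LiveBLAzer B/G FRET substrate for 2 h at room temperature, and measure fluorescence intensity.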
# [2] = qHTS assay for small molecule agonists of the p53 signaling pathway - cell viability (AID 651633; calls by dose curve; also: nearly all actives have a fitted effect of over 30% in size)
# Summary of the method: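 p53RE-bla cells were treated with compound for 16 hours at 37 C. Cytotoxicity was then measured as CellTiter-Glo luminescence after 30 min at room temperature.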
# [3] = qHTS assay for small molecule disruptors of the mitochondrial membrane potential - cell viability (AID 720634; calls by dose curve; also: nearly all actives have a fitted effect of over 20% in size)
# Summary of the method: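 HepG2, 1 hr compound, 37 C. ATP luminescence via CellTiter-Glo, 30 min RT, same well as m-MPI.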
# [4] = qHTS assay for identifying genotoxic compounds that show differential cytotoxicity against isogenic chicken DT40 cell lines with known DNA damage response pathways - wild type cell line (AID 743012); conditions: DT40 wild type chicken cells viability, CellTiter-Glo, 40 h; activity change, negative = cytotoxicity: at 68.4 µM (top of the series) unless noted; also: nearly all actives have a fitted effect of over 60% in size; as to activity change, negative = cytotoxicity: % is scaled to controls: 0 for no effect and ±100 for the full control effect
# Summary of the method: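 First, wild type DT40 cells were plated at 300 per well and equilibrated about 0.5 h at 37 C/5% CO2. Next, compounds in DMSO were added and exposure lasted 40 h. Finally, CellTiter-Glo was added for 30 min at room temperature and luminescence recorded.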
# [5] = qHTS assay for identifying genotoxic compounds that show differential cytotoxicity against isogenic chicken DT40 cell lines with known DNA damage response pathways - Rev3 mutant cell line (AID 743014); conditions: chicken DT40 Rev3-/- viability, CellTiter-Glo, 40 h; activity, negative = cytotoxicity: at 68.4 µM (top of the series) unless noted; also: nearly all actives have a fitted effect of over 55% in size
# [6] = qHTS assay for small molecule disruptors of the mitochondrial membrane potential (AID 720635); conditions: HepG2 mitochondrial membrane potential, Mito-MPS dye ratio; ratio activity, negative = MMP loss: at 83.2 µM (top of the series) unless noted
# Summary of the method: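 HepG2 cells exposed to compound 1 hr at 37C, then Mito-MPS dye 30 min. Ratio read of aggregate (540/590 nm) versus monomer (490/535 nm) fluorescence.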
# [7] = qHTS assay for identifying genotoxic compounds that show differential cytotoxicity against isogenic chicken DT40 cell lines with known DNA damage response pathways - Rad54/Ku70 mutant cell line (AID 743015); conditions: DT40 Rad54/Ku70 mutant viability, CellTiter-Glo, 40 h; activity change, negative = cytotoxicity: at 66.8 µM (top of the series) unless noted; also: nearly all actives have a fitted effect of over 60% in size
# [8] = biological target: Glucocorticoid receptor (Homo sapiens) (UniProt P04150); experiment: qHTS assay to identify small molecule antagonists of the glucocorticoid receptor (GR) signaling pathway (AID 720692; active = well fitted inhibition curve with a large enough effect in the signal ratio in the repeat runs, not every such curve was filed as active; inconclusive = weak or mixed curves, or effect the other way; inactive = no such curve, though single readings can be large or run the other way; the % refers to the signal ratio; as to activity change, negative = inhibition: % is scaled to controls: 0 for no effect and ±100 for the full control effect); conditions: GR-bla HeLa, beta-lactamase FRET ratio, dexamethasone-stimulated, 18 h; activity change, negative = inhibition: at 58.5 µM (top of the series) unless noted
# Summary of the method: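 Inhibition of glucocorticoid signalling is measured in HeLa cells with a GRE-controlled beta-lactamase reporter; cells are co-treated with compound and 5 nM dexamethasone (final) for 18 h before FRET substrate readout.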
# Potency is read from the fitted curve at half-maximal effect; tags tell the direction and shape of the fitted curve or compound fluorescence and quenching.
# Chain of UniProt P04150 (P04150 whole entry, looked up): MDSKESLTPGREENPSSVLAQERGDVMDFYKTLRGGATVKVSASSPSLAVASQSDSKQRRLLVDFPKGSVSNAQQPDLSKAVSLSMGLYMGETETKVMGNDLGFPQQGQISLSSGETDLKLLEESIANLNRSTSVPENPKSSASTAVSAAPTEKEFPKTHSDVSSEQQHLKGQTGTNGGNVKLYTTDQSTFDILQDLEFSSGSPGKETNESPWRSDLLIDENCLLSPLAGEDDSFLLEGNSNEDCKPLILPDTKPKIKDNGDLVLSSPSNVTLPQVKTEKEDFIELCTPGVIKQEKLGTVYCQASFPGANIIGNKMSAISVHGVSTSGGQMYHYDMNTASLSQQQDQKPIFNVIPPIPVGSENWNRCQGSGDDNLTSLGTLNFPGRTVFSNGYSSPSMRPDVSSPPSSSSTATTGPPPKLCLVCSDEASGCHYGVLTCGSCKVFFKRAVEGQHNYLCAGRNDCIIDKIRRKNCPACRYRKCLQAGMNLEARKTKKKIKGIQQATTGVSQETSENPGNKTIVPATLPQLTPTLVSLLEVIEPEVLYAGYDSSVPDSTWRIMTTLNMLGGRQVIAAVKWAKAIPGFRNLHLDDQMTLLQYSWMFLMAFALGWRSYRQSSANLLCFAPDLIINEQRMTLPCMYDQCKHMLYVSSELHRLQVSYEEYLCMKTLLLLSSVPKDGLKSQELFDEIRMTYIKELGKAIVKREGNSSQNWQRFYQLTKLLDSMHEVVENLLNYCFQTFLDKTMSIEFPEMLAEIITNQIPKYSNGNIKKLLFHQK
compound,measurement,setting,value
CCC(=O)Nc1ccc(Cl)c(Cl)c1,Potency,[1],"inconclusive: 61.1 µM [fluorescent, single point]"
same,activation,[1],inconclusive: 9.25% [at 95.1 µM]
same,Potency,[2],"inconclusive: 44.2 µM [cytotoxic, partial curve, poor fit]"
same,Potency,[3],inconclusive: 55.6 µM [cytotoxic]
same,Potency,[4],"inactive and inconclusive: 68.6 µM [cytotoxic, single point]"
same,Potency,[5],"inconclusive: 68.6 µM [cytotoxic, single point]"
O=C(O)CC(Cl)C(=O)O (stereo unspecified),Potency,[1],"inconclusive: 69.4 µM [activator, partial curve, poor fit]"
CSc1nc(NC(C)C)nc(NC(C)C)n1,Potency,[1],"inconclusive: 27.3 µM [rising, partial curve, poor fit]"
same,activation,[1],inconclusive: -0.892%
same,Potency,[6],"inconclusive: 27.2 µM [inhibitor, partial curve, poor fit] and inconclusive: 34.4 µM [inhibitor, single point]"
same,Potency,[4],"inconclusive: 68.6 µM [cytotoxic, single point]"
same,Potency,[5],"inconclusive: 68.2 µM [cytotoxic, single point] and inconclusive: 68.6 µM [cytotoxic, single point]"
same,Potency,[7],"inconclusive: 68.2 µM [cytotoxic, single point] and inconclusive: 68.6 µM [cytotoxic, single point]"
CN,Potency,[1],inactive
C=CCOC(Cn1ccnc1)c1ccc(Cl)cc1Cl (stereo unspecified),Potency,[1],"inconclusive: 68.8 µM [activator, single point] and inconclusive: 68.6 µM [activator]"
same,activation,[1],inconclusive: 13.8%
same,Potency,[3],"inconclusive: 54.6 µM [cytotoxic, partial curve, poor fit] and inconclusive: 54.5 µM [cytotoxic, partial curve]"
same,Potency,[6],"inconclusive: 34.4 µM [activator, partial curve]"
same,Potency,[8],"inconclusive: 49.1 µM [cytotoxic, partial curve]"
same,"activity change, negative = inhibition",[8],inconclusive: -20%
same,Potency,[4],active: 11.9 µM and active: 48.7 µM and active: 13.7 µM
